# This is one part of the list.
# B1: CGL (Crenomytilus grayanus), H2FH31 (protein)
# chain: MTTFLIKHKASGKFLHPYGGSSNPANNTKLVLHSDIHERMYFQFDVVDERWGYIKHVASGKIVHPYGGQANPPNETNMVLHQDRHDRALFAMDFFNDNIMHKGGKYIHPKGGSPNPPNNTETVIHGDKHAAMEFIFVSPKNKDKRVLVYA
# Experiments:
# Assay in all cases: glycan array binding signal (z-score within array); higher = stronger binding
# Settings in all cases: glycan notation: IUPAC condensed, linker removed
# [1] = biological target: Neu5Ac(a2-6)GlcNAc(b1-4)GlcNAc(b1-4)GlcNAc
# How it was run: (§1)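 The binding signal is a Z-score computed within each array and averaged over linkers. Arrays of the same protein sequence at different concentrations or buffers were also averaged together. Data originate from 3228 arrays in the Consortium for Functional Glycomics database, kept only where the protein sequence was available.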
# Neu5Ac(a2-8)Neu5Ac = biological target: Neu5Ac(a2-8)Neu5Ac
# How it was run: as §1
# [2] = biological target: Neu5Ac(a2-8)Neu5Ac(a2-3)Gal(b1-3)GalNAc(b1-4)[Neu5Ac(a2-3)]Gal(b1-4)Glc
# How it was run: as §1
# [3] = biological target: Neu5Ac(a2-8)Neu5Ac(a2-3)Gal(b1-3)GalNAc(b1-4)[Neu5Ac(a2-8)Neu5Ac(a2-3)]Gal(b1-4)Glc
# How it was run: as §1
# [4] = biological target: Neu5Ac(a2-8)Neu5Ac(a2-3)Gal(b1-4)Glc
# How it was run: as §1
# [5] = biological target: Neu5Ac(a2-8)Neu5Ac(a2-3)Gal(b1-4)GlcNAc
# How it was run: as §1
# [6] = biological target: Neu5Ac(a2-8)Neu5Ac(a2-3)[Gal(b1-3)GalNAc(b1-4)]Gal(b1-4)Glc
# How it was run: as §1
# [7] = biological target: Neu5Ac(a2-8)Neu5Ac(a2-3)[GalNAc(b1-4)]Gal(b1-4)Glc
# How it was run: as §1
# [8] = biological target: Neu5Ac(a2-8)Neu5Ac(a2-8)Neu5Ac
# How it was run: as §1
# [9] = biological target: Neu5Ac(a2-8)Neu5Ac(a2-8)Neu5Ac(a2-3)Gal(b1-4)Glc
# How it was run: as §1
# [10] = biological target: Neu5Ac(a2-8)Neu5Ac(a2-8)Neu5Ac(a2-3)[Gal(b1-3)GalNAc(b1-4)]Gal(b1-4)Glc
# How it was run: as §1
# [11] = biological target: Neu5Ac(a2-8)Neu5Ac(a2-8)Neu5Ac(a2-3)[GalNAc(b1-4)]Gal(b1-4)Glc
# How it was run: as §1
# [12] = biological target: Neu5Ac(a2-8)Neu5Ac(a2-8)Neu5Ac(a2-8)Neu5Ac(a2-3)[GalNAc(b1-4)]Gal(b1-4)Glc
# How it was run: as §1
# [13] = biological target: Neu5Ac(a2-8)Neu5Gc(a2-3)Gal(b1-4)GlcNAc
# How it was run: as §1
# [14] = biological target: Neu5Ac(b2-6)Gal(b1-4)GlcNAc
# How it was run: as §1
# Neu5Ac(b2-6)GalNAc = biological target: Neu5Ac(b2-6)GalNAc
# How it was run: as §1
# [15] = biological target: Neu5Ac9Ac(a2-3)Gal(b1-3)GlcNAc
# How it was run: as §1
# [16] = biological target: Neu5Ac9Ac(a2-3)Gal(b1-4)GlcNAc
# How it was run: as §1
# [17] = biological target: Neu5Ac9Ac(a2-6)Gal(b1-4)GlcNAc
# How it was run: as §1
# [18] = biological target: Neu5Gc(a2-3)Gal(b1-3)GlcNAc
# How it was run: as §1
# [19] = biological target: Neu5Gc(a2-3)Gal(b1-3)[Fuc(a1-4)]GlcNAc
# How it was run: as §1
# Neu5Gc(a2-3)Gal(b1-4)Glc = biological target: Neu5Gc(a2-3)Gal(b1-4)Glc
# How it was run: as §1
# [20] = biological target: Neu5Gc(a2-3)Gal(b1-4)GlcNAc
# How it was run: as §1
# [21] = biological target: Neu5Gc(a2-3)Gal(b1-4)GlcNAc(b1-3)Gal(b1-4)GlcNAc(b1-2)Man(a1-3)[Neu5Gc(a2-3)Gal(b1-4)GlcNAc(b1-3)Gal(b1-4)GlcNAc(b1-2)Man(a1-6)]Man(b1-4)GlcNAc(b1-4)GlcNAc
# How it was run: as §1
# [22] = biological target: Neu5Gc(a2-3)Gal(b1-4)[Fuc(a1-3)]GlcNAc
# How it was run: as §1
# [23] = biological target: Neu5Gc(a2-6)Gal(b1-4)GlcNAc
# How it was run: as §1
# Neu5Gc(a2-6)GalNAc = biological target: Neu5Gc(a2-6)GalNAc
# How it was run: as §1
# [24] = biological target: Neu5Gc(a2-8)Neu5Ac(a2-3)Gal(b1-4)GlcNAc
# How it was run: as §1
# [25] = biological target: Neu5Gc(a2-8)Neu5Gc(a2-3)Gal(b1-4)GlcNAc
# How it was run: as §1
# [26] = biological target: Neu5Gc(a2-8)Neu5Gc(a2-3)Gal(b1-4)GlcNAc(b1-3)Gal(b1-4)GlcNAc
# How it was run: as §1
# [27] = biological target: Neu5Gc(a2-8)Neu5Gc(a2-6)Gal(b1-4)GlcNAc
# How it was run: as §1
# [28] = biological target: Neu5Gc(b2-6)Gal(b1-4)GlcNAc
# How it was run: as §1
binder,measurement,setting,value
B1,glycan array binding signal (z-score),[1],-0.377
same,glycan array binding signal (z-score),Neu5Ac(a2-8)Neu5Ac,-0.335
same,glycan array binding signal (z-score),[2],-0.258
same,glycan array binding signal (z-score),[3],-0.156
same,glycan array binding signal (z-score),[4],-0.415
same,glycan array binding signal (z-score),[5],-0.387
same,glycan array binding signal (z-score),[6],-0.392
same,glycan array binding signal (z-score),[7],-0.366
same,glycan array binding signal (z-score),[8],-0.315
same,glycan array binding signal (z-score),[9],-0.311
same,glycan array binding signal (z-score),[10],-0.174
same,glycan array binding signal (z-score),[11],-0.372
same,glycan array binding signal (z-score),[12],-0.352
same,glycan array binding signal (z-score),[13],-0.446
same,glycan array binding signal (z-score),[14],-0.426
same,glycan array binding signal (z-score),Neu5Ac(b2-6)GalNAc,-0.351
same,glycan array binding signal (z-score),[15],-0.374
same,glycan array binding signal (z-score),[16],-0.297
same,glycan array binding signal (z-score),[17],-0.355
same,glycan array binding signal (z-score),[18],-0.403
same,glycan array binding signal (z-score),[19],-0.349
same,glycan array binding signal (z-score),Neu5Gc(a2-3)Gal(b1-4)Glc,-0.418
same,glycan array binding signal (z-score),[20],-0.291
same,glycan array binding signal (z-score),[21],-0.312
same,glycan array binding signal (z-score),[22],-0.312
same,glycan array binding signal (z-score),[23],-0.252
same,glycan array binding signal (z-score),Neu5Gc(a2-6)GalNAc,-0.32
same,glycan array binding signal (z-score),[24],-0.384
same,glycan array binding signal (z-score),[25],-0.331
same,glycan array binding signal (z-score),[26],-0.376
same,glycan array binding signal (z-score),[27],-0.427
same,glycan array binding signal (z-score),[28],-0.295
